Laboratory results taken from the supplement of paper PMC3334620.
The full ranking holds about 33,000 sequences; the median of “E-score (-0.5 to 0.5)” is about -0.01, and the highest 2% start at about 0.26. The list shows a part of the results.

Each sequence was assayed against Ste12 (UniProt P13574) (assay: PBM E-score (8-mer binding enrichment) (E-score (-0.5 to 0.5)); higher = stronger / more preferred TF binding; most listed sequences are background and not binding sites). Settings: protein concentration: 200 nM; construct: GST-DNA-binding domain.
Outline: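 Universal all-10-mer Agilent arrays, double-stranded by primer extension on fresh or once-stripped slides, were probed with about 100-200 nM GST-tagged yeast transcription factors made by PURExpress. Fluorescent anti-GST detected bound protein, and masliner normalised the scans. E-scores from the Universal PBM Analysis Suite were given to each ungapped eight-base word pooled with its reverse complement.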

Sequence | PBM E-score
ATCACCCC | 0.206
AACTTATC | 0.0734
CTTTGGGA | 0.0925
CTGTACAG | 0.0159
AGGATCCT | -0.0539
ACATTACG | 0.02
ATGCTTGC | -0.256
CCCCACAA | 0.2
CCGACAGA | 0.213
CGCCTCTA | -0.0334
CGAAGCTA | -0.109
GCAACAAA | 0.165
AGAGTGAA | 0.212
GGCTAGAA | 0.0675
ACGCCCCT | 0.00926
ACGACCAC | -0.129
AGAGGCGC | -0.122
GGAATACA | 0.0679
ACCAAGAG | -0.117
CTAACAAG | 0.0938
ACGTTCCT | -0.0389
GAGCTCAA | -0.0663
ATCGGGGA | 0.048
AGCGGATA | -0.138
CGGCTCTC | -0.00045

Sequence | PBM E-score
CGGCGCCC | -0.0583
AAAGTCGC | 0.282
AATCAGAG | 0.0937
GGACTAAA | 0.0661
CGATCGGC | 0.222
CAAGAGAA | 0.00775
ACGACGTC | -0.0648
CGTACTGA | -0.0801
CGGACTGA | -0.109
GTAACACA | 0.22
AACAGTAG | 0.0927
CGCCCCTA | 0.214
ATAACTGC | 0.0455
AGCAAGTC | -0.142
ACGGAGCT | -0.2
ATTTTCTG | 0.0989
AAGCCCCA | -0.237
ATCTATCG | -0.158
ACACCCCG | -0.105
GCCTAGGA | -0.28
CAATTGAG | 0.0566
CTGCTTGC | -0.0733
ACTTAGCT | -0.201
ATCTGTAA | 0.0995
AACTAACG | 0.0335

Sequence | PBM E-score
ACCTGTCT | -0.129
ACAGCACA | 0.0988
CGGCTTTA | 0.119
GCCCCGCA | -0.112
GCATCCGA | -0.0885
AGTCGACC | -0.188
TACGGCCA | -0.0301
GCGAGAAC | -0.0267
CCCGAAGA | -0.0126
CCAAACGA | 0.0156
ATGGGCAG | -0.0812
ACAAGGGA | -0.157
AGTTGTAG | 0.055
GCTGCGCA | -0.229
ACGCTCGA | 0.0566
CCGTATTC | 0.0233
AGCTGACA | -0.0833
AGCGGCCT | -0.213
CCTTTGCA | -0.202
GCTAAGTA | 0.0653
AAGTCCGG | -0.155
GATTCTAA | 0.0387
AAATCGGA | 0.0787
GTCATTGA | -0.0606
ACCTATTC | -0.152

Sequence | PBM E-score
AAAGGCTA | -0.00034
ACCGCACA | -0.166
ACGTCGGC | -0.172
CCTCCAAA | 0.104
GCGTCACA | 0.1
CACACCGC | 0.0397
AACATAGG | 0.0615
TAAACTGA | 0.218
AGTAAGAG | -0.0537
GCACCCCA | 0.149
ATGAATTG | 0.0843
GTCAGCGA | -0.14
AATCAGGG | -0.264
ACGGGACG | -0.131
CCCACCAG | -0.0399
ATGAGTCA | -0.0404
ATATTCAG | 0.103
AAAATACT | 0.235
CAAGTCCG | -0.204
AAATATGT | 0.226
CCCGTAGA | -0.397
ACCACGGT | -0.337
ACAATCGC | 0.0816
AGGTCTAA | -0.0263
ACATGCCC | -0.251

Sequence | PBM E-score
AGGCGAAC | -0.083
GAGAAGCA | 0.00487
CTAATAAA | 0.145
AACTAAGG | -0.0428
CGACCCTC | -0.109
GGCTTTGA | -0.146
AAGGCGTG | -0.145
GACGCCCA | 0.219
ACATCCCA | -0.0882
CCGTTAGG | -0.156
AGGCCAAT | -0.14
AGCTAACA | 0.0564
CAATAGAC | -0.0408
ATCCCTAC | 0.00727
GAGAGGGA | -0.239
AATTATGG | -0.0149
CCAGCCCC | -0.0634
TGGTCAAA | 0.0917
GTGTTGGA | -0.0728
CACCTTAA | 0.0107
CGGGTCAA | 0.0841
CATCGTAC | -0.0407
GTCGACAC | 0.0215
TACGTAAA | 0.0382
TGTGAACA | 0.146

Sequence | PBM E-score
AGATCAGC | -0.0592
CCATTACC | 0.00961
CGAAAATA | 0.124
GAGAGTTA | 0.031
ATCTCTTC | 0.209
ACTCGCGC | 0.118
AAACTTAT | 0.248
AGGCAAGA | 0.00793
TGGGTCAA | -0.163
CTTTATTA | 0.112
CATCCGCA | 0.0163
CGACGACG | -0.072
ACCGGTTC | -0.0305
CATCTAGC | -0.217
ATGAAGCG | -0.0717
CACGTTCC | 0.0363
CAAACACA | 0.121
AGGTCGCC | -0.19
AGAGTAGA | -0.0237
CGCGACGA | 0.0977
CAAGCTAG | -0.0127
AGATTACG | -0.0185
TTTCCAAA | 0.237
TATAATAA | 0.141
AGACCTTA | 0.128

Sequence | PBM E-score
CCAATGGG | -0.234
TATATAAA | 0.267
ACCTCACC | -0.029
CATTCTCA | 0.222
ACTCATGA | 0.124
GTTGATGA | -0.0166
AGGACGAC | -0.271
CATACGCA | 0.00492
CACGGCCG | 0.104
GATTTTGA | 0.228
AATTTATG | 0.205
GTTCTTCA | 0.0585
GTGTGTGA | 0.142
ATGGCAAC | -0.0144
GAATGGTA | -0.00973
AAATCGTA | 0.181
CACACAGG | 0.166
GCTGCCAA | -0.196
ATATGGCA | -0.0191
CACCCACG | 0.0855
GATGTTGC | 0.00426
ACAGACTC | -0.173
